In PubChem BioAssay AID1508642 (National Center for Advancing Translational Sciences (NCATS), 2021):
In all, about 43,000 compounds went through this assay and about 200 (0.47%) were called active. Inconclusive results, whose numbers are uncertain, are shown with a selection of clear calls. Calls follow the shape of the dose curve; as a rule, active = well fitted cell-killing curve with a large enough effect; inconclusive = small, poorly fitted or top-dose-only effect, or effect the other way; inactive = flat fitted curve, though single readings scatter. A potency beside an inconclusive call is a rough fit, not a confirmed value.

Test: Cell viability qHTS assay in S16 Pmp22-F2sN cells; also: nearly all actives have a fitted effect of over 65% in size
Conditions: S16 Pmp22-F2sN Schwann cells (luciferase reporters placed in the Pmp22 gene) viability, CellTiter-Glo, 24 h; series mostly up to 57.5 µM
Outline: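 Luminescence from CellTiter-Glo, read by CCD camera after a 15 min room-temperature incubation, served as the viability signal. Reporter Schwann cells (S16 Pmp22-F2sN) had been treated with pin-transferred compounds for 24 h at 37C.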
Potency is read from the fitted curve at half-maximal effect; tags tell the direction and shape of the fitted curve.

Row | Structure (SMILES) | Potency
1 | COCCCn1c(SCC(=O)NCc2ccccc2)nc2c(sc3ccccc32)c1=O | inconclusive: 0.158 µM [cytotoxic, full curve, poor fit]
2 | Cc1n[nH]c(C)c1S(=O)(=O)N1CCCC(C(=O)Nc2ccc(Cl)cc2)C1 (stereo unspecified) | inconclusive: 39.8 µM [cytotoxic, single point]
3 | Cc1cc(C)cc(-n2ccnc2SCC(=O)Nc2nc3ccccc3s2)c1 | inactive
4 | Cc1cc(Cl)ccc1NC(=O)CN1C(=O)CSc2ccc(S(=O)(=O)N(C)C)cc21 | inconclusive: 3.16 µM [cytotoxic, full curve]
5 | COc1ccc(CNC(=O)Cn2ccc3cc(S(=O)(=O)N4CCCCC4)ccc32)c(OC)c1 | inconclusive: 35.5 µM [cytotoxic, single point]
6 | COC(=O)c1ccccc1NC(=O)CSc1nc(-c2ccccc2)cc(C(F)(F)F)n1 | inactive
7 | CCOc1ccccc1NC(=O)Cn1c(=O)n(CCCC(=O)NCCOC)c(=O)c2cc(OC)c(OC)cc21 | inactive
8 | Cc1ccc(C)c(N2CCN(C(=O)Cn3ncc4c(=O)oc5ccc(C)cc5c43)CC2)c1 | inactive
9 | CCOC(=O)c1c(NC(=O)/C=C/c2ccc(OC)c(OC)c2)sc(C(C)=O)c1C | inactive
10 | COc1cccc(/C=C/c2nc(C#N)c(N3CCCCC3)o2)c1 | inconclusive: 39.8 µM [cytotoxic, partial curve, poor fit]
11 | CCc1ccc(CSc2nc(-c3ccccc3OC)nc3c2Cc2c(CO)cnc(C)c2O3)cc1 | inconclusive: 39.8 µM [cytotoxic, single point]
12 | COc1ccccc1CNC(=O)CN1C(=O)CSc2c1c(C)nn2-c1ccccc1 | inconclusive: 11.2 µM [cytotoxic, partial curve, poor fit]
13 | COc1cccc(NC(=O)CN2CCCN(S(=O)(=O)c3ccc(Br)cc3)CC2)c1 | inconclusive: 22.4 µM [cytotoxic, single point]
14 | COc1ccc(N2CC(c3nc(-c4cc(OC)c(OC)c(OC)c4)no3)CC2=O)cc1Cl (stereo unspecified) | inconclusive: 39.8 µM [cytotoxic, single point]
15 | CCNc1nc2c(c(=O)[nH]c(=O)n2C)n1CC(O)COc1ccc(Cl)cc1Cl (stereo unspecified) | inconclusive: 10 µM [cytotoxic, partial curve]
16 | CCC(=O)N1CCCc2cc(S(=O)(=O)N3CCC(C(=O)Nc4ccc(F)c(F)c4)CC3)ccc21 | inconclusive: 28.2 µM [cytotoxic, partial curve, poor fit]
17 | CC(=O)c1cccc(NC(=O)CCCN2C(=O)COc3ccc(C)cc32)c1 | inconclusive: 39.8 µM [cytotoxic, partial curve, poor fit]
18 | Cc1c(Cl)cccc1Nc1nn2c(=O)c3ccc(C(=O)NCCc4ccccc4)cc3nc2s1 | inconclusive: 39.8 µM [cytotoxic, single point]
19 | CCOC(=O)c1ccc2c(c1)N(CC(=O)Nc1ccc(C)cc1C)C(=O)c1ccccc1S2 | inactive
20 | COc1ccc(NC(=O)c2nnn(Cc3nc(-c4cc(OC)c(OC)c(OC)c4)oc3C)c2C)cc1 | inactive
21 | COc1ccc(N2CCN(c3c4c(nc5nncn35)CCC4)CC2)cc1 | inactive

Row | Structure (SMILES) | Potency
22 | CCc1ccccc1NC(=O)CSc1ncc(S(=O)(=O)c2ccccc2)c(N)n1 | inactive
23 | CC(=O)c1cccc(Nc2nc(-c3cccc(C)c3)nc3ccccc23)c1 | inconclusive: 25.1 µM [cytotoxic, single point]
24 | COc1cccc(C(=O)NCC(c2ccc(N(C)C)cc2)N2CCc3ccccc32)c1 (stereo unspecified) | inconclusive: 35.5 µM [cytotoxic, single point]
25 | CC(=O)c1ccc(Nc2nc3c(S(=O)(=O)c4ccccc4)nnn3c3ccc(Cl)cc23)cc1 | inconclusive: 35.5 µM [cytotoxic, single point]
26 | COc1cc(NC(=O)c2cc3c(s2)-c2ccccc2OC3)cc(OC)c1OC | inconclusive: 39.8 µM [cytotoxic, single point]
27 | CCN1c2ccccc2-c2nc(SCC(=O)NCc3ccccc3)ncc2S1(=O)=O | inconclusive: 39.8 µM [cytotoxic, single point]
28 | Cc1ccc(CN2CCc3nc(Nc4ccc5c(c4)OCCO5)ncc3C2)cc1 | inactive
29 | CCCCS(=O)(=O)CC(O)CSc1nc(-c2ccc(C)cc2)cc(-c2ccccc2)c1C#N (stereo unspecified) | inconclusive: 22.4 µM [cytotoxic, single point]
30 | O=C(NCCCN1CCN(c2ccc(F)cc2)CC1)c1cnn(-c2ccc(F)cc2)c1-n1cccc1 | inconclusive: 39.8 µM [cytotoxic, single point]
31 | CCc1ccc(NC(=O)CSc2ccc(-c3ccccn3)nn2)cc1 | inconclusive: 14.1 µM [cytotoxic, partial curve, poor fit]
32 | CCCOc1ccc(-c2nonc2NC(=O)c2oc3ccc(Cl)cc3c2C)cc1OCCC | inconclusive: 3.98 µM [cytotoxic, partial curve, poor fit]
33 | CCOC(=O)N1CCN(Cc2nc3cc(NC(=O)C(C)C)ccc3n2C(C)C)CC1 | inconclusive: 31.6 µM [cytotoxic, single point]
34 | O=C(c1ccc2c(c1)N(Cc1c(F)cccc1Cl)C(=O)c1ccccc1S2)N1CCOCC1 | inconclusive: 11.2 µM [rising, full curve, poor fit]
35 | OCc1cnc(SCc2ccc(F)cc2)n1Cc1ccc(F)cc1 | inconclusive: 35.5 µM [cytotoxic, single point]
36 | COc1ccc2c(Sc3ccc(C)cc3)c(C(=O)NCCc3ccccc3)[nH]c2c1 | inactive
37 | Cc1cc(OCCCn2c(CCNC(=O)C3CCCCC3)nc3ccccc32)ccc1Cl | inconclusive: 31.6 µM [cytotoxic, single point]
38 | O=C(Nc1nc2n(n1)C(c1ccc(Cl)cc1)C=C(c1ccccc1)N2)c1ccco1 (stereo unspecified) | inconclusive: 28.2 µM [cytotoxic, partial curve, poor fit]
39 | COc1ccc(CCN2C(=O)N(c3ccc(C)cc3)C(=O)C2CC(=O)Nc2ccc(F)cc2)cc1 (stereo unspecified) | inconclusive: 25.1 µM [cytotoxic, partial curve, poor fit]
40 | COc1cccc(NC(=O)c2sc3nc(C)c(C(=O)Nc4ccc(Cl)cc4)c(-c4ccc(Br)cc4)c3c2N)c1 | inactive
41 | CC(=O)c1c(C)oc2ccc(N(C(=O)Oc3ccccc3)S(=O)(=O)c3ccccc3)cc12 | inactive
42 | COc1ccc(-c2cc3ccc(O)c(CN4CCCC(C)C4)c3oc2=O)cc1 (stereo unspecified) | inactive

Row | Structure (SMILES) | Potency
43 | CC1C(=O)Nc2ccc(S(=O)(=O)NCc3ccc(N(C)C)cc3)cc2NC1=O (stereo unspecified) | inactive
44 | CC(CNC(=O)c1ccc(CSc2nc3ccncc3n2Cc2ccc(F)cc2)cc1)c1ccccc1 (stereo unspecified) | inconclusive: 39.8 µM [cytotoxic, single point]
45 | Cc1cccc(NC(=O)c2cc(-c3ccc4c(c3)OCCO4)on2)c1 | inactive
46 | COC(=O)c1cc(S(=O)(=O)NCC2CCN(Cc3ccc(F)cc3)CC2)c[nH]1 | inconclusive: 2.82 µM [cytotoxic, full curve, poor fit]
47 | COc1ccc(NC(=O)CSC2=Nc3ccccc3C3=NC(CCC(=O)NCc4ccc(F)cc4)C(=O)N23)cc1Cl (stereo unspecified) | inconclusive: 14.1 µM [cytotoxic, partial curve, poor fit]
48 | CCOC(=O)c1ccc(NC(=O)CC2Sc3ccc(C(F)(F)F)cc3NC2=O)cc1 (stereo unspecified) | inconclusive: 39.8 µM [cytotoxic, single point]
49 | Cc1ccccc1CC1C(=O)Nc2ccc(Br)cc21 (stereo unspecified) | inconclusive: 0.891 µM [rising, full curve, poor fit]
50 | Cn1c(=O)n(C)c2cc(N3CCOCC3)c(NS(=O)(=O)c3ccc(C(C)(C)C)cc3)cc21 | inconclusive: 39.8 µM [cytotoxic, partial curve, poor fit]
51 | CC1CCN(S(=O)(=O)c2ccc3c(ccc(=O)n3CC(=O)Nc3ccc(C(C)C)cc3)c2)CC1 | inconclusive: 39.8 µM [cytotoxic, single point]
52 | Cn1cc(CCC(=O)NCc2ccc(Cl)cc2)c2ccccc21 | inconclusive: 25.1 µM [cytotoxic, single point]
53 | Cc1ccc(S(=O)(=O)NCC2CCC(C(=O)N(C)Cc3ccccc3)CC2)cc1 (stereo unspecified) | inconclusive: 39.8 µM [cytotoxic, single point]
54 | CCOc1ccc(NS(=O)(=O)c2ccc3c(c2)CCN3C(C)=O)cc1 | inconclusive: 5.01 µM [cytotoxic, full curve, poor fit]
55 | COc1ccc(-c2nnc(SCC(=O)Nc3ccc(C(C)=O)cc3)nc2-c2ccc(OC)cc2)cc1 | inconclusive: 31.6 µM [cytotoxic, partial curve, poor fit]
56 | N#C/C(=C\c1ccc(-c2ccc(F)cc2F)o1)c1nc2ccccc2[nH]1 | inactive
57 | CCOc1cccc(CNc2ccc(O)cc2)c1OCc1ccccc1Cl | inconclusive: 28.2 µM [cytotoxic, single point]
58 | Cc1ccc(NC(=O)CN2C(=O)COc3ccc(S(=O)(=O)N4CCCCCC4)cc32)cc1C | inconclusive: 22.4 µM [cytotoxic, partial curve, poor fit]
59 | COc1cccc(-n2c(=O)c3c(C)c(C(=O)N(C)C)sc3n(CC(=O)Nc3ccc(C)cc3Cl)c2=O)c1 | inconclusive: 39.8 µM [cytotoxic, single point]
60 | Cc1c(C)n(Cc2ccccc2)c2ccc(C(=O)NCCc3ccccc3Cl)cc12 | inconclusive: 39.8 µM [cytotoxic, single point]
61 | CCCCN(C)C(=O)C1CCC(CNS(=O)(=O)c2ccc3c(c2)CC(C)N3C(C)=O)CC1 (stereo unspecified) | inconclusive: 17.8 µM [cytotoxic, partial curve, poor fit]
